PubChem BioAssay AID488969 (Vanderbilt High Throughput Screening Facility, 2010)
Whole data set: some 110,000 compounds, median “z-score” near -0.1, cut for the highest 2% near 2. This is one part of the list. Calls of active or inactive are those of the source.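 The calls were made as follows: active = z-score in the third read window above 3 or below -3; inactive = the rest.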

Each molecule was assayed against Metabotropic glutamate receptor 8 (Rattus norvegicus) (UniProt P70579) (assay: rat mGluR8 modulators via GIRK flux, primary screen, cell-based, thallium flux, HTS (AID 488969)). Settings: HEK293 rat mGluR8, GIRK (G protein-gated inwardly rectifying potassium channel) thallium flux, FluoZin2; at 10 µM; stronger effect = higher value; submaximal glutamate (EC20) added with thallium.
Sequence of UniProt P70579 (P70579 whole entry, looked up): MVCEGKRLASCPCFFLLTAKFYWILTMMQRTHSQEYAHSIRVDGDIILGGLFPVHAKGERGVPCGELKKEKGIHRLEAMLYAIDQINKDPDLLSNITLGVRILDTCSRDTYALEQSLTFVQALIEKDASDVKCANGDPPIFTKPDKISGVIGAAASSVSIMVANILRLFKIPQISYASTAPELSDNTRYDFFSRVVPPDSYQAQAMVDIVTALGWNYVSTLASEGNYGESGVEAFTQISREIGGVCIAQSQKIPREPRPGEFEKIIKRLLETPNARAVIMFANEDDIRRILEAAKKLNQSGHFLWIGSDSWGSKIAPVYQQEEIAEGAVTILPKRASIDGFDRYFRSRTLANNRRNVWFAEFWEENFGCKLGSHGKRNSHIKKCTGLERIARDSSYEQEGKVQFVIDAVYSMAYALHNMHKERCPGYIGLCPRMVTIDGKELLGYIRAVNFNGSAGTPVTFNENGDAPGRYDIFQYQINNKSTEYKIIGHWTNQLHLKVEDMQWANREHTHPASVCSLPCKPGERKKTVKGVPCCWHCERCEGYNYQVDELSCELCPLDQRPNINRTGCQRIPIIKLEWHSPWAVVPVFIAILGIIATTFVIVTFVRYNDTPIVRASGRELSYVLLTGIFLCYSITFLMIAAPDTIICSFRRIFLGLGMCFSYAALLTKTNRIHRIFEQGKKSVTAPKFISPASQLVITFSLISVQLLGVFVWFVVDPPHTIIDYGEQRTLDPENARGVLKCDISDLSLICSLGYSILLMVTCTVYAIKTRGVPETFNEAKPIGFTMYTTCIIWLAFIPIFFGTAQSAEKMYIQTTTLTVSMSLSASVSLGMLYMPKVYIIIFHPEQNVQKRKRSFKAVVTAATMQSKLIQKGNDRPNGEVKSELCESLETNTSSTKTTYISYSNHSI
`CCOC(=O)c1c(NC(=O)c2cc(C(C)C)on2)sc(C(C)=O)c1C` showed a z-score of -0.0726.
In the case of `CC(C)(C)c1ccc(C(=O)CSc2nc3ccccc3c(=O)[nH]2)cc1`, the z-score is reported as 0.164.
In the case of `CCOc1ccc(-n2c(N)c(C(=O)NCc3ccco3)c3nc4ccccc4nc32)cc1`, the z-score is reported as -0.213.
`CCNc1nc(NCC)nc(SCCOC(=O)COc2ccc(Cl)cc2Cl)n1` was tested, and the z-score was -0.348.
`COc1cc(CC(=O)NCc2ccco2)cc(OC)c1OC` gave a z-score of -0.12.
With `Cc1nc(NC(CC(C)C)C(=O)O)c2nc(C)oc2n1` (configuration not stated) the z-score was -0.22.
In the case of `COc1ccc(C(=O)N(CCN2CCOCC2)CC(=O)NC2CCCC2)cc1OC`, the z-score is reported as -0.289.
Molecule `O=[N+]([O-])c1cc2c(cc1/C=N/n1c(-c3ccccc3)n[nH]c1=S)OCO2` has a z-score of 0.135.
In the case of `NC(=O)c1sc2nc3c(c(-c4ccccc4)c2c1N)CCC3`, the z-score is reported as -0.58.
Molecule `O=C(NCc1ccccc1)c1c(F)c(F)c(F)c(F)c1F` has a z-score of -0.0578.
`CCCNC(=O)NS(=O)(=O)c1cnccc1Sc1ccc(Cl)c(Cl)c1` was tested, and the z-score was -0.403.
With `CC1CCCCN1C(=O)Nc1cccc(Cl)c1` (configuration not stated) the z-score was 0.789.
With `CN1Cc2cc(C(=O)c3cc(Cl)cc(CSc4ncccn4)c3O)cnc2NC1=O` the z-score was -0.712.
With `CCOC(=O)CN1C(=O)C(Sc2n[nH]c(-c3ccccc3)n2)CCc2ccccc21` (configuration not stated) the z-score was -0.0693.
`CC1CCCCN1C(=O)c1cc(F)c(F)cc1Cl` (configuration not stated) gave a z-score of 0.0317.
With `NS(=O)(=O)c1ccc(NC(=O)CCC2CCCCC2)cc1` the z-score was 0.495.
`COc1cccc(-c2nnc(SCC(=O)N3CCOCC3)o2)c1` gave a z-score of 0.305.
`CC(=O)OCC1OC(n2ccc3ccccc32)C(OC(C)=O)C(OC(C)=O)C1OC(C)=O` (configuration not stated) showed a z-score of 0.102.
`O=C(CSc1nnc(CNc2ccc(F)cc2)n1Cc1ccco1)NC1CC1` gave a z-score of -0.487.
Molecule `CC1CCN(c2ccc([N+](=O)[O-])cn2)CC1` has a z-score of -0.0341.
`O=C1CCc2cc(S(=O)(=O)N3CCC(C(=O)NCc4ccccc4Cl)CC3)ccc2N1` gave a z-score of -0.473.
In the case of `CCC(CC)c1nnc(NC(=O)c2ccc3ccccc3n2)s1`, the z-score is reported as active: 11.4.
With `Cc1cc(/C=N/n2cnnc2)c(C)n1-c1ccccc1` the z-score was -0.143.
With `COc1ccccc1Nc1ncnc2c1cnn2-c1cccc(C)c1` the z-score was 0.293.
Work on `CSc1ccc(C(=S)N2CCN(C)CC2)cc1` yielded a z-score of -0.0432.
Work on `CS(=O)(=O)N1CCN(C(=O)Cc2ccccc2)CC1` yielded a z-score of 0.248.
In the case of `O=C(O)CC(Cc1ccc(Cl)cc1)C(=O)NCc1ccccc1` (configuration not stated), the z-score is reported as -0.244.
`O=C(CSc1ncn(-c2ccccc2)n1)Nc1ccc(Br)cn1` gave a z-score of -0.314.
With `COCCNc1c2c(nc3c(-c4ccccc4)c(C)nn13)CCCC2` the z-score was -0.65.
With `Cc1ccccc1NC(=O)c1oc(=O)c2ccccc2c1-c1ccccc1` the z-score was -0.34.
For `O=C(CCCOc1ccc(Cl)cc1Cl)n1nnc2ccccc21`, the z-score was -0.0622.
With `COc1ccc(CCNS(=O)(=O)c2ccc3c(c2)n(C)c(=O)c(=O)n3C)cc1OC` the z-score was 0.539.
`CC(C)(C)NC(=O)Cn1c(=O)oc2ccc(Cl)cc21` was tested, and the z-score was 0.388.
In the case of `CN(C)S(=O)(=O)c1cccc(NC(=O)COC(=O)CCSc2ccc(Cl)cc2)c1`, the z-score is reported as 0.722.
With `O=C(O)c1ccc(NC(=O)c2cccs2)cc1` the z-score was 0.3.
Work on `C=CCC(C#Cc1ccccc1)[N+](C)(C)CC=C` (configuration not stated) yielded a z-score of -0.273.
Molecule `Cn1cc(SCC(=O)N2CCCc3ccccc32)c2ccccc21` has a z-score of -0.879.
Molecule `Cc1ccc(-c2c(C#N)c(N)n3c(nc4ccccc43)c2C#N)cc1` has a z-score of 0.0249.
With `Clc1ccc(-c2nc3cnccn3c2Nc2ccc3c(c2)OCO3)cc1` the z-score was -1.02.
With `CCC(CC)NC(=O)C1CCN(S(=O)(=O)c2cccs2)CC1` the z-score was 0.208.
`CCCc1cc(=O)oc2cc(OCC(=O)N3CCc4ccccc43)ccc12` gave a z-score of -0.116.
`Cc1cc(C)c[n+](-c2[nH]c(=O)sc2/C=N/NC([S-])=Nc2ccccc2)c1` gave a z-score of 0.162.
For `O=C(NCc1ccc(Cl)cc1)C1CCCN(S(=O)(=O)c2cnc[nH]2)C1` (configuration not stated), the z-score was 0.5.
`CCOC(=O)c1[nH]c(C)c(C(=O)NCC2CCCO2)c1C` (configuration not stated) gave a z-score of -0.0349.
In the case of `CCn1cc(C(=O)OCC(=O)NCc2ccc3c(c2)OCO3)c(=O)c2ccc(C)nc21`, the z-score is reported as -0.834.
`Cc1ccc(-n2c(C3CC3c3ccc(Cl)cc3)n[nH]c2=S)cc1` (configuration not stated) was tested, and the z-score was 0.832.
`CCOC(=O)Nc1ccc2c(c1)N(C(=O)C(C)N1CCCC1)c1ccccc1CC2` (configuration not stated) gave a z-score of 0.468.
In the case of `Cc1nn(C)cc1/C=C1\SC(=S)NC1=O`, the z-score is reported as 0.236.
Molecule `Cc1ccccc1CS(=O)(=O)Cc1ccc(C(=O)NCCCN2CCOCC2)o1` has a z-score of -0.276.
For `Cc1occc1-c1nnc(SCC(=O)Nc2ccccc2)n1CCc1ccccc1`, the z-score was 0.954.
`CCNC(=S)NCc1ccc(F)cc1` was tested, and the z-score was -0.134.
With `CC(c1ccccc1)N1CCn2c(nc3cc(NC(=O)NC4CCCCC4)ccc32)C1` (configuration not stated) the z-score was -1.17.
`COc1ccc2ncn(-c3ccccc3)c2c1` gave a z-score of -0.0476.
In the case of `S=C(Nc1ccccc1Oc1ccccc1)Nc1cccc(Cl)c1Cl`, the z-score is reported as active: 4.09.
`Cc1cc(/C=C2\SC(=S)NC2=O)c(C)n1C` gave a z-score of -0.121.
`Cc1ccc(NC(=S)NNC(=O)c2ccc(N3CCOCC3)c([N+](=O)[O-])c2)cc1C` was tested, and the z-score was -0.856.
Molecule `COc1ccc(N2CCN(C(=O)CCCn3c(=S)[nH]c4cc5c(cc4c3=O)OCO5)CC2)cc1` has a z-score of -0.487.
Molecule `CCc1cc2c(=O)c(-c3nc(C)cs3)coc2cc1OC(C)C(=O)NCCO` (configuration not stated) has a z-score of -0.25.
Molecule `CCOC(=O)CN(C(=O)CSc1nnc2c(n1)[nH]c1c(C)cc(C)cc12)c1ccccc1` has a z-score of -0.0593.
With `CCOC(=O)C1CCN(C(=O)c2ccc(Br)o2)CC1` the z-score was -0.901.
`Cc1cccc2cc(CN(CC3CCCO3)C(=O)c3cnccn3)c(=O)[nH]c12` (configuration not stated) was tested, and the z-score was 0.229.
In the case of `O=C(Cc1ccccc1)NNS(=O)(=O)c1ccc([N+](=O)[O-])cc1`, the z-score is reported as -0.301.
`Cc1ccc(N(C)S(=O)(=O)c2ccc(C)cc2)cc1` was tested, and the z-score was -0.435.
In the case of `CNC(=S)N1CCN(c2ccccn2)CC1`, the z-score is reported as 0.101.
Molecule `N#CCCN/N=C(/Cc1nc2ccccc2[nH]1)c1ccc(Cl)cc1` has a z-score of 0.0234.
For `O=C(Nn1c(O)c(C=C2N=c3ccccc3=N2)sc1=S)c1ccc(Cl)cc1`, the z-score was -0.0506.
`CC1CCN(c2cc(N3CCOCC3)c(F)cc2[N+](=O)[O-])CC1` gave a z-score of -0.674.
Molecule `CN(Cc1ccccc1)S(=O)(=O)c1ccc(Cl)nc1` has a z-score of -0.102.
In the case of `O=C(NCc1ccccc1)c1ccc(-c2ccc(F)cc2)o1`, the z-score is reported as -0.283.
With `CC(C)C(=O)NC(=S)Nc1ccccc1C(=O)Nc1ccccc1` the z-score was 0.292.
In the case of `Cc1cccc(-c2c3c(=O)n(C)c(=O)n(C)c3cn2CCO)c1`, the z-score is reported as 0.939.
`O=C(Nc1ccc(Cl)cc1)c1ccncc1` showed a z-score of -0.351.
With `N#Cc1c(-c2ccccc2)ccn(Cc2ccccc2Cl)c1=O` the z-score was -0.435.
For `O=C(NCC1CCCO1)c1ccc(CS(=O)(=O)c2ccc(Cl)cc2)o1` (configuration not stated), the z-score was 0.0189.
`Clc1cccc(/C=N/Nc2ncnc3ccccc23)c1` gave a z-score of 0.218.
In the case of `O=C(CS(=O)(=O)c1ccccc1)N1CCCCCC1`, the z-score is reported as -0.0311.
Molecule `CC1CCN(C(=O)C(NS(=O)(=O)c2cccc3nsnc23)c2ccccc2)CC1` (configuration not stated) has a z-score of 0.905.
For `CN(c1ccccc1C(=O)N1CCN(c2cccc(Cl)c2)CC1)S(C)(=O)=O`, the z-score was 1.16.
Molecule `O=c1ccc2cc(S(=O)(=O)N3CCOCC3)ccc2o1` has a z-score of 0.613.
`c1ccc(OCc2nc3c4c(ncn3n2)-c2ccccc2CC42CCCC2)cc1` was tested, and the z-score was -0.208.
With `CCOC(=O)Nc1ccc(NC(=O)c2c(OC)cccc2OC)cc1` the z-score was -0.203.
Molecule `COC(=O)c1ccc(CSc2nc(-c3ccco3)cc(C(F)(F)F)n2)o1` has a z-score of -0.121.
With `Cc1ccc(C(=O)c2cc([N+](=O)[O-])ccc2N2CC(C)OC(C)C2)cc1` (configuration not stated) the z-score was -0.215.
With `COc1cc(C2C(C#N)=C(N)N(Nc3ccccc3)C3=C2C(=O)CC(C)(C)C3)ccc1OCc1ccccc1` (configuration not stated) the z-score was -0.0398.
With `CN(Cc1ccccc1)C(=S)NC(=O)c1ccc(-c2ccccc2)cc1` the z-score was active: 4.13.
`Nc1nc(-c2c[nH]c3ccccc23)cs1` was tested, and the z-score was -1.6.
`CCOC(=O)c1c(C)[nH]c(C(=O)C(C)OC(=O)c2oc3ccccc3c2COC)c1C` (configuration not stated) gave a z-score of -0.347.
Molecule `Cc1nnc(SCC(=O)N2CCc3ccccc3C2)n1-c1ccccc1` has a z-score of -0.299.
For `COc1ccc(Br)cc1C(=O)Nc1ccccc1-c1ccccc1`, the z-score was -0.245.
`COc1cccc(NC(=O)c2ocnc2C)c1` gave a z-score of -0.0866.
For `CC(C)CNS(=O)(=O)c1ccc(CCC(=O)N2CCN(Cc3ccc4c(c3)OCO4)CC2)cc1`, the z-score was -0.432.
`O=C(c1ccc(N2CCOCC2)cc1)c1cccs1` was tested, and the z-score was -0.228.
`CCc1ccc(C(=O)N/N=C/c2ccc(Cl)cc2Cl)nc1` showed a z-score of -0.0339.
Molecule `COc1ccccc1Oc1c(C)oc2c(CN(C)C)c(O)ccc2c1=O` has a z-score of -0.0321.
Work on `COc1ccc(-c2cc(CCCC(=O)NCc3ccccn3)no2)cc1` yielded a z-score of 0.402.
`Cc1cccc(NC(=O)c2sc(NC(=O)COc3ccccc3)c(C#N)c2C)c1C` gave a z-score of -0.152.
Molecule `O=C(Nc1ccc(-c2noc(COc3ccccc3Cl)n2)cc1)c1ccco1` has a z-score of -0.35.
`C=CC[N+](C)(C)CCCNC(=O)/C=N/O` was tested, and the z-score was -0.147.
Molecule `COc1cc(S(=O)(=O)NCCOC23CC4CC(CC(C4)C2)C3)c(OC)cc1Cl` has a z-score of 0.206.
With `N#Cc1c(/N=C/c2ccc(Br)s2)sc2c1CCC2` the z-score was 0.0576.
Work on `COc1ccccc1C/C(N)=N/OC(=O)c1cccc([N+](=O)[O-])c1` yielded a z-score of 0.0551.
`CCc1c(C)nc(SCC(=O)CC(=O)OC(C)C)c(C#N)c1C` was tested, and the z-score was -0.0446.
In the case of `Cc1ccc(C)c(NC(=S)c2nc3ccccc3s2)c1`, the z-score is reported as active: 8.98.
`Cc1nn(-c2ccccc2)c(C)c1/C=N\N1CCN(c2ccc(Cl)cc2)CC1` showed a z-score of -0.183.
`O=C(CSCc1ccc(Br)cc1)Nc1ccc(S(=O)(=O)N2CCOCC2)cc1` gave a z-score of 0.242.
With `CCOC(=O)C1CCCN(C(=O)c2cc3nc(-c4ccc5c(c4)OCO5)cc(C(F)(F)F)n3n2)C1` (configuration not stated) the z-score was -0.345.
Molecule `COc1cccc2c1N1C(=O)c3c(C(=O)O)cccc3C1CC2(C)C` (configuration not stated) has a z-score of 1.11.
`O=C(NCCO)NC(=S)c1ccccc1` showed a z-score of -0.169.
`C=CCNC(=O)c1onc(CSc2cc(C)cc(C)c2)c1C(=O)O` gave a z-score of -0.208.
Work on `CCOC(=O)c1coc(CNC(=O)c2c(C)oc3c2CCCC3)c1` yielded a z-score of -0.0273.
In the case of `CCOc1nc(Nc2cc(Cl)ccc2OC)nc(OCC)n1`, the z-score is reported as -1.03.
`O=C(CSc1nc2ccsc2c(=O)n1NC(=O)c1ccccc1)Nc1nccs1` gave a z-score of -0.202.
